Source: patent US20040022772A1

Target: p160 BCR (human) (UniProt P11274)
Experiment: cell-based or functional assay

Chain of UniProt P11274 (P11274 whole entry): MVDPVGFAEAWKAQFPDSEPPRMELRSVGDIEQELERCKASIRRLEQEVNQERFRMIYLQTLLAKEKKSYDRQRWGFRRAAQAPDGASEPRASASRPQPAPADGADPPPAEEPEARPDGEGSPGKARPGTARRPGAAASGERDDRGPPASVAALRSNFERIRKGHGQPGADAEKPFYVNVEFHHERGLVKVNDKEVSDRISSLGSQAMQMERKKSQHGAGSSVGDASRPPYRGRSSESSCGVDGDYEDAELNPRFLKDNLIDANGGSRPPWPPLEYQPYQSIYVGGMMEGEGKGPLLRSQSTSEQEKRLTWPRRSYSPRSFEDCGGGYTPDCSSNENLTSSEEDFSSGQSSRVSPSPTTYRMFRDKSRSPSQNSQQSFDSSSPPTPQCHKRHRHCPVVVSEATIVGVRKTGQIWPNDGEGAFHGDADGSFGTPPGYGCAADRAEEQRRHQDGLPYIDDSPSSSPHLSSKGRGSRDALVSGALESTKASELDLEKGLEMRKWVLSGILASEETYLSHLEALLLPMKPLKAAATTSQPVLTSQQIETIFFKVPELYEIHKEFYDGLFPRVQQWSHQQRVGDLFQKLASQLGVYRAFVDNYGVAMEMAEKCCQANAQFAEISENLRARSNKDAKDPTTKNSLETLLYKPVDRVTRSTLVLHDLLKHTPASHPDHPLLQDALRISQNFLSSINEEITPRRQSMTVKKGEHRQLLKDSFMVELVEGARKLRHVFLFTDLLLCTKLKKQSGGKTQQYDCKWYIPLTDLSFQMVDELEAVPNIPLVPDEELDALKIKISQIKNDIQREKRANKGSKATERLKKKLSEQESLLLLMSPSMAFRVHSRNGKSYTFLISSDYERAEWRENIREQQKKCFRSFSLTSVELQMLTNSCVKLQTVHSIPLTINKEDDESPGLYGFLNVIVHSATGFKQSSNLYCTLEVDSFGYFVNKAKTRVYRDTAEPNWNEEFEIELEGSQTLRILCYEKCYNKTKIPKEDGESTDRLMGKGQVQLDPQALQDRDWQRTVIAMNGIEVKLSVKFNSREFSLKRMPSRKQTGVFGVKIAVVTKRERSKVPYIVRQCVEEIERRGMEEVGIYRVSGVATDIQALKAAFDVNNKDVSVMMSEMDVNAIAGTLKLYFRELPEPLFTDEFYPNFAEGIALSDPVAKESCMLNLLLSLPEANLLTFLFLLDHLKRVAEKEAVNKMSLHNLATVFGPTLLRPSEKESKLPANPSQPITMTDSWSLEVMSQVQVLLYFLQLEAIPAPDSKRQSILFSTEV

- fold decrease in casein phosphorylation activity of Bcr isolated from cells coexpressing Bcr-Abl: 25 fold
Substance: p210 BCR-ABL
